Laboratory results as given in PubChem BioAssay AID1460 (National Center for Advancing Translational Sciences (NCATS), 2008).
“And” between values parts separate entries of the source, which are not always exact repeats. Identical values can stand only once. The campaign covered roughly 270,000 compounds. About 5,800 (2.1%) were called active. Inconclusive results, whose numbers are uncertain, are shown with a selection of clear calls. Calls follow the shape of the dose curve; as a rule, active = well fitted inhibition curve with a large enough effect; inconclusive = small, poorly fitted or top-dose-only effect; inactive = flat fitted curve, though single readings scatter. Potencies of inconclusive entries are doubtful fits and often do not repeat.

molecular target: Microtubule-associated protein tau (Homo sapiens) (UniProt P10636); assay: qHTS for Inhibitors of Tau Fibril Formation, Thioflavin T Binding; details: recombinant tau K18 P301L, heparin-induced fibrillization, ThT fluorescence; series mostly up to 57.4 µM; activity, negative = inhibition: at the top concentration; also: nearly all actives have a fitted effect of over 55% in size
Outline: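 Using a mix of unlabeled (15 uM) and Alexa 594-labeled (0.24 uM) tau K18 P301L, heparin-triggered fibrillization over 6 hr at 37 C was scored by ThT fluorescence.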
% is scaled to controls: 0 for no effect and ±100 for the full control effect; potency is read from the fitted curve at half-maximal effect; tags tell the direction and shape of the fitted curve.

UniProt P10636, sequence (P10636 whole entry, looked up): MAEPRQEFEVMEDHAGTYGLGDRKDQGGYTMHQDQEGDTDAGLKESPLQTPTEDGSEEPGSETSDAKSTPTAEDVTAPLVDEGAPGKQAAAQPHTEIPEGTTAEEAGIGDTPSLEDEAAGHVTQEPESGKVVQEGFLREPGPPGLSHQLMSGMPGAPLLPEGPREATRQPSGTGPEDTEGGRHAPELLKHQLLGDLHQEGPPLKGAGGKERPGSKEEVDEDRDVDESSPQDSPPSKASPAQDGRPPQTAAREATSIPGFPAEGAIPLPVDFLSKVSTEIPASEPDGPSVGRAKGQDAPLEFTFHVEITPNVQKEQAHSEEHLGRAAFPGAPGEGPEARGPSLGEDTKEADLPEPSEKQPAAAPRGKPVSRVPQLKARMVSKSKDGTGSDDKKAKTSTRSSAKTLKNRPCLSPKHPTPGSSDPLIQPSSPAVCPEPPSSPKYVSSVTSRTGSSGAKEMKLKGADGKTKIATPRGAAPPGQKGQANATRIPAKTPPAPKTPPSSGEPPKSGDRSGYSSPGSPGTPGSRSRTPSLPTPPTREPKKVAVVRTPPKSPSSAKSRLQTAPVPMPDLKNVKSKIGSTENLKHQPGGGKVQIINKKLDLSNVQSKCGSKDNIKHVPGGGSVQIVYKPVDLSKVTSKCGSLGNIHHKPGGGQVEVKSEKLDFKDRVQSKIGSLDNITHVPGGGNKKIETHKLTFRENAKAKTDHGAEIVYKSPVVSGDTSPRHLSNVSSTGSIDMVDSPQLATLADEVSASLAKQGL

Compound | activity, negative = inhibition | Potency
COc1cccc(/C=N/NC(=S)NC2CC3CC2C2C=CCC32)c1O (stereo unspecified) | inactive: -4.28% | 
O=C(N/N=C1/CCSC1)c1cccc([N+](=O)[O-])c1 |  | inconclusive: 39.8 µM [inhibitor, single point]
O=C(N/N=C/c1c(O)ccc2ccccc12)c1ccc[n+](CCO)c1 |  | inconclusive: 15.8 µM [inhibitor, partial curve]
Cc1cc2nc3c(=O)[nH]c(=O)nc-3n(CC(O)C(O)C(O)CO)c2cc1C (stereo unspecified) |  | inconclusive: 15.8 µM [activator, partial curve] and inconclusive: 12.6 µM [activator, partial curve] and inconclusive: 3.55 µM [activator, full curve]
O=C(CN1CCN(c2nc(-c3ccc(F)cc3)cs2)CC1)Nc1ccc2c(c1)OCO2 |  | inconclusive: 15.8 µM [inhibitor, partial curve]
O=C(CSc1nc2ccccc2s1)Nc1ccc2c(c1)OCO2 |  | inconclusive: 11.2 µM [inhibitor, partial curve]
Cc1cc(C)c2nc(N3CCC(C(=O)N4CCCC4)CC3)sc2c1 |  | inconclusive: 31.6 µM [inhibitor, partial curve, poor fit]
C/C(=N/NC(=O)C(=O)N/N=C(/C)c1ccccc1)c1ccccc1 |  | inconclusive: 10 µM [inhibitor, partial curve, poor fit]
CCOC(=S)N/C(=N\S(=O)(=O)c1ccc(C)cc1)c1ccccc1 | inactive: -2.85% | 
COc1cc(NC(=O)c2cc(C)nc3c2c(C)nn3-c2ccccc2Cl)cc(OC)c1 | inactive: 4.26% | 
COc1c(O)cccc1O | inactive: 6.57% | 
CC(=O)NCc1ccc(C(=O)CSc2nnc(-c3ccncc3)n2Cc2ccccc2)o1 |  | inconclusive: 17.8 µM [inhibitor, partial curve]
O=C(C1=C(O)C(=O)N(c2nccs2)C1c1ccccc1)c1cc2ccccc2o1 (stereo unspecified) |  | inconclusive: 1.12 µM [inhibitor, full curve]
CC(=O)c1ccc(NC(=O)c2ccc(-c3nc(CSc4ccccc4)c(C)o3)cc2)cc1 | inactive: -1.02% | 
O=C(Nc1ccc2c(c1)OCO2)N1CCN(c2ncc(C(F)(F)F)cc2Cl)CC1 |  | inconclusive: 25.1 µM [inhibitor, partial curve]
Cc1cccn2c(=O)c3cc(C(N)=S)c(=N)n(CCCOC(C)C)c3nc12 |  | inconclusive: 22.4 µM [inhibitor, partial curve, poor fit]
CC1(C)CC(NC(=O)C(Cl)(Cl)Cl)CC(C)(C)N1 | inactive: 5.9% | 
Cc1cc2ccccn2c1C(C[N+](=O)[O-])c1ccc(N(C)C)cc1 (stereo unspecified) |  | inconclusive: 4.47 µM [inhibitor, full curve]
COc1ccc(OCC(=O)c2c[nH]c3ccccc23)cc1 |  | inconclusive: 2.24 µM [inhibitor, full curve, poor fit]
CC1=NN(c2ccccc2)C(=O)/C1=C\c1cn(CCC#N)nc1-c1ccc(Cl)cc1 |  | inconclusive: 28.2 µM [inhibitor, partial curve]
Cc1ccc(N2CCN(S(=O)(=O)c3ccc(F)c(C(=O)Nc4ccc(Cl)cc4Cl)c3)CC2C)cc1 (stereo unspecified) | inactive: -10% | 
COc1cccc(NC(=O)CSc2nc3ccsc3c(=O)n2-c2ccc(C(=O)O)cc2)c1 | inactive: -0.713% | 

Compound | activity, negative = inhibition | Potency
COc1ccc2oc(=Nc3ccc(C(=O)O)cc3)c(C(=O)NCc3ccco3)cc2c1 |  | inconclusive: 10 µM [inhibitor, partial curve]
Cc1cc2c(cc3c(SCc4nc(-c5ccccc5)oc4C)nnc(C)n32)o1 |  | inconclusive: 12.6 µM [inhibitor, partial curve, poor fit]
O=C(COc1ccc(/C=N/NC(=O)c2ccccc2O)cc1)Nc1ccccc1 |  | inconclusive: 0.447 µM [inhibitor, full curve]
COc1cccc(C2=CC(c3cccs3)n3nnnc3N2)c1 (stereo unspecified) | inactive: -13.3% | 
COc1ccc(/C=C/c2cc[n+](C(=O)Cc3ccccc3)cc2)cc1 |  | inconclusive: 31.6 µM [inhibitor, partial curve]
CCCCC(=O)Nc1nc2ccc3nc(C)sc3c2s1 |  | inconclusive: 15.8 µM [inhibitor, partial curve]
CCc1cccc(C)c1NC(=S)NCC1CCN(c2ccc(OC)cc2)C1 (stereo unspecified) |  | inconclusive: 15.8 µM [inhibitor, partial curve, poor fit]
O=C(Nc1ccc(F)cc1)C(c1ccccc1)N1CCN(S(=O)(=O)c2ccccc2)CC1 (stereo unspecified) | inactive: -1.67% | 
COc1ccc(-n2nnnc2C2CCN(S(=O)(=O)c3ccc(C(C)(C)C)cc3)CC2)cc1 | inactive: 2.21% | 
Cc1cccc(NC(=O)CSc2ccc(-c3ccc4c(c3)OCO4)nn2)c1C |  | inconclusive: 11.2 µM [inhibitor, partial curve]
C=C(C)C(O)/C=C/c1ccc(OC)cc1 (stereo unspecified) |  | inconclusive: 3.16 µM [inhibitor, single point]
CCC(CC)C(=O)Nc1nc2c(s1)CC(C)CC2 (stereo unspecified) | inactive: -1.88% | 
COc1ccc(/C=C(\C#N)C(=O)Nc2cccc3ncccc23)cc1OC |  | inconclusive: 28.2 µM [inhibitor, single point]
Cc1ccc(S(=O)(=O)NCCc2cn3ccsc3n2)cc1 | inactive: 1.7% | 
CCOC(=O)c1c2ccc(OCC(=O)N/N=C/c3ccc(Cl)cc3)cc2n2ccccc12 | inactive: -18% | 
Cc1ccc(N2C(=O)CC(SCC(=O)Nc3ccc(S(N)(=O)=O)cc3)C2=O)cc1 (stereo unspecified) |  | inconclusive: 20 µM [inhibitor, partial curve]
O=C(COCc1cc(-c2ccc3c(c2)OCO3)on1)N1CCN(c2ccccc2)CC1 |  | inconclusive: 0.398 µM [inhibitor, partial curve]
CCOc1ccc(N2C(=O)/C(=C/c3cc(OC)c(OC)c(OC)c3)N(CC(=O)OC)C2=S)cc1 |  | inconclusive: 17.8 µM [inhibitor, partial curve]
Cc1cc(N)n2ncc(-c3cccc(Br)c3)c2n1 |  | inconclusive: 14.1 µM [inhibitor, partial curve]
COc1ccccc1N1CCN(CCCCNS(=O)(=O)c2cccc3c(N(C)C)cccc23)CC1 |  | inconclusive: 10 µM [inhibitor, partial curve]
Nc1c(C(=O)Nc2ccc(F)c(F)c2)sc2nc(-c3ccncc3)ccc12 |  | inconclusive: 0.708 µM [inhibitor, full curve]
COC(=O)c1cc(NC(=O)c2nn(C)c3c2COc2ccccc2-3)cc(C(=O)OC)c1 | inactive: -9.88% | 

Compound | activity, negative = inhibition | Potency
CCOC(=O)c1ccc(NC(=O)Nc2cc3c(cc2N2CCCC2)n(C)c(=O)n3C)cc1 |  | inconclusive: 25.1 µM [inhibitor, partial curve]
COc1ccc(N2CCN(C(=O)c3cccc(NC(=O)c4nsc5ccccc45)c3)CC2)cc1 |  | inconclusive: 0.316 µM [inhibitor, full curve, poor fit]
Cc1[nH]c2ccccc2c1C(=O)COC(=O)c1c(-c2ccccc2Cl)noc1C | inactive: 4.17% | 
Cc1ccc(C(=O)O[C@H](C(=O)O)[C@@H](OC(=O)c2ccc(C)cc2)C(=O)O)cc1 (tested in a mixture with another compound) | inactive: -9.61% | 
CCc1ccc(OCC(=O)N/N=C/c2cc([N+](=O)[O-])ccc2N2CCOCC2)cc1 |  | inconclusive: 14.1 µM [inhibitor, partial curve]
COC(=O)c1[nH]c2ccc(Cl)cc2c1NC(=O)Oc1ccccc1 |  | inconclusive: 17.8 µM [inhibitor, partial curve]
Cc1cc(C)c2c(n1)sc1c(O)cc(=O)[nH]c12 | inactive: -15.4% | 
CCC[C@@H]1C[C@@]1(CCC)C(NC(=O)c1cccs1)c1ccc(Cl)cc1 (stereo partly specified) | inactive: -8.37% | 
Cc1cnn(C(=S)NCc2ccc(Cl)cc2)c1 | inactive: -14.3% | 
Cc1ccc(-c2nnc(SCC(=O)NC(=O)Nc3ccc(C)cc3C)n2N)cc1 |  | inconclusive: 0.447 µM [inhibitor, full curve]
O=C(NCC1CCCO1)[C@@H]1CSC2c3ccccc3C(=O)N21 (stereo partly specified) |  | inconclusive: 31.6 µM [inhibitor, single point]
Cc1ccc(Nc2c(-c3ccccn3)nc3cccc(C)n23)cc1 |  | inconclusive: 25.1 µM [inhibitor, partial curve, poor fit]
COc1cc(C(=O)NNC2=NC(C)(C)Cc3cc(C)c(C)cc32)cc(OC)c1OC | inactive: -8.56% | 
Cc1ccc(NC(=O)Cn2ccn(-c3ccc(F)c(F)c3)c(=O)c2=O)cc1C |  | inconclusive: 44.7 µM [inhibitor, single point]
C[C@@H]1C[C@](C)(C(=O)c2ccc3ccccc3c2)C=C1c1ccc2ccccc2c1 |  | inconclusive: 12.6 µM [inhibitor, partial curve]
CC12CCC(CC1)C(C)(C)O2 |  | inconclusive: 4.47 µM [inhibitor, single point]
COc1ccc(CNC(=O)c2ccc(CS(=O)Cc3ccccc3Cl)o2)cc1 (stereo unspecified) | inactive: -11.6% | 
O=C(CSc1ncnc2c1nnn2Cc1ccccc1)NC1CCCC1 |  | inconclusive: 14.1 µM [inhibitor, partial curve]
COCC(C)NC(=O)c1cc2cc(OC)ccc2[nH]1 (stereo unspecified) |  | inconclusive: 12.6 µM [inhibitor, partial curve]
Cc1ccc(N/N=C/c2ccc(N3CCOCC3)cc2)cc1C |  | inconclusive: 22.4 µM [inhibitor, partial curve]
O=C(NCc1ccco1)c1ccc2c(c1)N(Cc1ccccc1)C(=O)CS2 |  | inconclusive: 28.2 µM [inhibitor, single point]
Cc1ccc(NC(=O)C(=O)Nc2ccc(C)cn2)nc1 |  | inconclusive: 0.708 µM [inhibitor, full curve, poor fit]
